Measurements reported in PubChem BioAssay AID485341 (National Center for Advancing Translational Sciences (NCATS), 2010).
The whole screen tested about 330,000 compounds, of which about 1,700 (0.52%) were called active. Inconclusive means that the source gave no clear call. Such entries were picked first, then a sample of the others. Calls follow the shape of the dose curve; as a rule, active = well fitted inhibition curve with a large enough effect; inconclusive = small, poorly fitted or top-dose-only effect; inactive = no such curve, though single readings can be large or run the other way. Where the call is inconclusive, the potency comes from a doubtful curve fit.

molecular target: Beta-lactamase (Escherichia coli (strain K12)) (UniProt P00811); assay: qHTS Inhibitors of AmpC Beta-Lactamase (assay without detergent); conditions: AmpC nitrocefin hydrolysis, absorbance 480 nm, 0.0001% Triton; series mostly up to 57.1 µM; also: nearly all actives have a fitted effect of over 20% in size
How it was run: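 20 mM phosphate pH 7.0 + 0.01% (detergent screen) or 0.0001% Triton X-100; 5.3 nM AmpC reagent; cpd preinc 15 min RT; nitrocefin (800 uM stock) to start; A480 q20 s × 4 min; Activity was normalised to no-enzyme and no-compound control wells.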
Potency is read from the fitted curve at half-maximal effect; tags tell the direction and shape of the fitted curve.

UniProt P00811, sequence (P00811 whole entry, looked up): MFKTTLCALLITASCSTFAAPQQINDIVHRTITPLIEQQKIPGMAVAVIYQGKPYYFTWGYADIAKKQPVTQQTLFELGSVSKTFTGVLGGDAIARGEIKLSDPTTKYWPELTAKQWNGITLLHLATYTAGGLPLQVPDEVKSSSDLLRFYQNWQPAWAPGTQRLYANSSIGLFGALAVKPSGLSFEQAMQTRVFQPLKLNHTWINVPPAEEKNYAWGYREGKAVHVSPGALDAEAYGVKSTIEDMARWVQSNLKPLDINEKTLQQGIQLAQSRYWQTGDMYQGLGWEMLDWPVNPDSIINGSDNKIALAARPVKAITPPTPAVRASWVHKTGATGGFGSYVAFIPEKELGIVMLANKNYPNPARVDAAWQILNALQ

| SMILES | Potency |
| --- | --- |
| O=C(Nc1cccc(NC(=O)c2cccs2)c1)c1ccc(Br)o1 | active: 25.1 µM |
| NC(=O)C1(N2CCCCC2)CCN(Cc2nc3ccccc3c(=O)[nH]2)CC1 | active: 0.316 µM |
| O=C(CSc1nnc(NC(=O)c2c(F)cccc2F)s1)NCC1CCCO1 (centres undefined) | inconclusive: 28.2 µM [inhibitor, single point] |
| CCOC(=O)C1C(=O)C=C(c2ccc([N+](=O)[O-])cc2)CC1c1ccccc1 (centres undefined) | inconclusive: 6.31 µM [inhibitor, single point] |
| CCOC(=O)c1c(NC(=O)C2COc3ccccc3O2)sc2c1CCN(Cc1ccccc1)C2 (centres undefined) | inconclusive: 3.55 µM [inhibitor, partial curve] |
| CC(=O)c1ccc(S(=O)(=O)NC2CC(=O)N(c3cccc(F)c3)C2)cc1 (centres undefined) | inconclusive: 39.8 µM [inhibitor, single point] |
| O=C1c2cccc3cc([N+](=O)[O-])cc(c23)C(=O)N1/N=C/c1ccc(O)cc1O | inconclusive: 14.1 µM [inhibitor, partial curve] |
| C/C(=N\NC(=O)c1nnn(-c2nonc2N)c1CN(C)c1ccccc1)c1cccs1 | inconclusive: 11.2 µM [inhibitor, partial curve, poor fit] |
| Cc1cccc(NC(=S)N/N=C/c2c[nH]c3ccccc23)c1 | active: 15.8 µM |
| N#Cc1ccccc1CSc1nc2ncc(Br)cc2[nH]1 | inactive |
| COc1ccccc1Oc1ncnc2c1cnn2-c1ccccc1 | inactive |
| CC(C)CNS(=O)(=O)c1ccc(S(=O)(=O)N2CCN(CCC#N)CC2)cc1 | inconclusive: 0.631 µM [inhibitor, full curve, poor fit] |
| CC(=O)Nc1ccc(S(=O)(=O)Nc2cccc(NC(=O)C(C)(C)C)c2)cc1 | inconclusive: 3.98 µM [inhibitor, single point] |
| CCCC(=O)Nc1c(C(=O)OCC)[nH]c2ccccc12 | active: 20 µM |
| COc1ccc(S(=O)(=O)N(C)c2ccc(OC(=O)C(C)Oc3ccc(F)cc3)cc2)cc1 (centres undefined) | inconclusive: 31.6 µM [inhibitor, single point] |
| CCOc1ccc(NS(=O)(=O)c2cc(C(=O)N3CCC3)ccc2Cl)cc1 | inconclusive: 35.5 µM [inhibitor, single point] |
| N=C1SC(c2ccccc2)C(=O)N1c1ncc(Cc2ccccc2Cl)s1 (centres undefined) | active: 15.8 µM |
| O=C(CCNS(=O)(=O)c1cccs1)NCc1ccco1 | inactive |
| O=C(CN1C(=O)NC2(CCCC2)C1=O)N1CCc2ccccc2C1 | inconclusive: 0.794 µM [inhibitor, single point] |
| Oc1ccccc1-c1cc(-c2ccco2)[nH]n1 | inconclusive: 7.94 µM [inhibitor, full curve, poor fit] |
| Cc1ccc(S(=O)(=O)N(C)C)cc1NC(=O)C(C)NC(C)c1cccs1 (centres undefined) | inactive |
| COc1cccc(OCc2cc(/C=N/Nc3ccc(C(=O)O)cc3)ccc2OC)c1 | active: 17.8 µM |
| O=C(Nc1ccc(Oc2ccc(Cl)cc2)c(Cl)c1)c1cc(I)cc(I)c1O | inconclusive: 2.24 µM [inhibitor, full curve, poor fit] |
| Cc1ccc(CNC(=O)c2ccc(N3CCC4(CC3)CC(c3cccc(Br)c3)=NO4)c(NC(=O)c3ccccc3)c2)cc1 | inactive |
| O=C1CSC(c2cn(-c3ccccc3)nc2-c2ccccc2)N1Cc1ccco1 (centres undefined) | inconclusive: 0.708 µM [inhibitor, partial curve, poor fit] |

| SMILES | Potency |
| --- | --- |
| Cc1cccc(Nc2nnc(SC/C(O)=C(\C#N)c3nc4ccccc4[nH]3)s2)c1C | inconclusive: 4.47 µM [inhibitor, full curve, poor fit] |
| Cc1ccc(Nc2nc3ccccc3nc2-n2nc(C)cc2C)cc1 | inconclusive: 5.62 µM [inhibitor, full curve, poor fit] |
| Oc1ccc(-c2[nH]ncc2-c2nc3ccccc3s2)c(O)c1 | inconclusive: 8.91 µM [inhibitor, full curve, poor fit] |
| CCSc1ccc(-c2cccc([N+](=O)[O-])c2)nn1 | inactive |
| CCC1=C/C(=C\c2ccc3c(c2)OCO3)C(=O)S1 | inconclusive: 25.1 µM [inhibitor, partial curve] |
| Cc1ccccc1C(=O)N1CCC(C(=O)N2CCN(c3ncccn3)CC2)CC1 | inactive |
| S=c1[nH]nc(-c2ccc3ccccc3n2)n1-c1ccccc1Cl | inactive |
| O=C(Nc1cc2c3c(c1)CC(=O)N3CCC2)C1CCCCC1 | inconclusive: 31.6 µM [inhibitor, single point] |
| Cc1nn(-c2ccccc2)c(Cl)c1C(=O)NNC(=O)c1ccncc1 | inactive |
| Nc1nnc(P(c2ccccc2)c2ccccc2)s1 | inactive |
| Cc1nnc(SCC(=O)c2c(N)n(C3CC3)c(=O)[nH]c2=O)n1C | inactive |
| COc1cc([N+](=O)[O-])ccc1NC(=O)Nc1ccc2c(c1)OCCO2 | inactive |
| CCOCCn1c(C)c(C(=O)OCC)c2cc(O)c3ccccc3c21 | inconclusive: 2.24 µM [inhibitor, full curve, poor fit] |
| O=C(N/N=C/c1cn(-c2ccccc2)nc1-c1cccs1)c1ccccc1F | inactive |
| CCCN1CC23C=CC(O2)C(C(=O)O)C3C1=O (centres undefined) | active: 35.5 µM |
| C/C(=N\NC(=O)c1ccc(NS(=O)(=O)c2cccs2)cc1)c1ccccn1 | inconclusive: 31.6 µM [inhibitor, single point] |
| Cc1ccc(/C=C2\C(=O)NC(=S)N(c3ccc(F)cc3)C2=O)s1 | inconclusive: 14.1 µM [inhibitor, partial curve] |
| Cc1[nH]c2ccccc2c1SCC(=O)N1CCCc2ccccc21 | inconclusive: 2.24 µM [inhibitor, full curve, poor fit] |
| Cc1ccc(S(=O)(=O)NC(C)(C)C)cc1C(=O)OCC(=O)N1CCCC1=O | inconclusive: 39.8 µM [inhibitor, single point] |
| CCN(CC)CCCn1c(=S)[nH]c2cc(Cl)ccc2c1=O | active: 28.2 µM |
| O=C(NCCc1ccccc1)C1CCCN(S(=O)(=O)c2cccs2)C1 (centres undefined) | inconclusive: 89.1 µM [inhibitor, partial curve, poor fit] |
| Cc1nn(C)c(Oc2cccc(Cl)c2)c1C(=O)O | inconclusive: 6.31 µM [inhibitor, single point] |
| O=C(Nc1cccc(NC(=O)c2ccco2)c1)c1cccc(Br)c1 | inconclusive: 31.6 µM [inhibitor, partial curve] |
| Cc1cc2c(ncn2C)c(NS(=O)(=O)c2ccccc2Cl)c1C | inconclusive: 6.31 µM [inhibitor, single point] |
| COCc1cc(=O)[nH]c(-c2csc(C)n2)n1 | inactive |

| SMILES | Potency |
| --- | --- |
| Cc1ccc(/C=N/N2CCN(Cc3ccccc3)CC2)o1 | inactive |
| O=C(COC(=O)c1ccccc1)Nc1ccc2[nH]c(=O)[nH]c2c1 | inconclusive: 39.8 µM [inhibitor, single point] |
| S=C(NCc1cccs1)Nc1cc(Cl)cc(Cl)c1 | inconclusive: 8.91 µM [inhibitor, partial curve] |
| COc1ccc2nc(NC(=O)CSCc3c(C)noc3C)sc2c1 | active: 25.1 µM |
| COC(=O)c1sccc1NC(=O)CSc1ccccc1NS(=O)(=O)c1ccccc1Cl | inconclusive: 6.31 µM [inhibitor, partial curve, poor fit] |
| CC(C)(C)c1ccc(C2C3=C(CCCC3=O)NC3=C2C(=O)c2ccccc23)cc1 (centres undefined) | inconclusive: 17.8 µM [inhibitor, partial curve] |
| COc1cc(C(=O)NC(=S)Nc2ccccc2N2CCOCC2)cc(OC)c1OC | active: 15.8 µM |
| Cc1cccc(C)c1NC(=O)CN(C)C(=O)C1CCN(c2ncnc3sc(C)c(C)c23)CC1 | inconclusive: 39.8 µM [inhibitor, single point] |
| CCOC(=O)C1CCN(S(=O)(=O)c2cn(C)cn2)CC1 | inactive |
| CCOc1ccc(Oc2ccc(C(F)(F)F)cc2N)cc1 | inactive |
| COc1ccc(-n2c(Cc3cccn3C)nnc2SCC(=O)Nc2ccc(Cl)cc2)cc1 | active: 1 µM |
| O=C(CC1S/C(=N/N=C/c2ccco2)NC1=O)Nc1cccc(Cl)c1Cl (centres undefined) | inconclusive: 25.1 µM [inhibitor, partial curve] |
| O=C(CSc1n[nH]c(-c2ccncc2)n1)c1ccccc1 | active: 0.398 µM |
| Cc1nnc(SCc2nnc(-c3ccccc3Br)o2)n1-c1ccccc1 | active: 5.62 µM |
| O=C(COc1ccc(Br)cc1)Nc1ccccc1C(=O)NC1CC1 | active: 3.16 µM |
| CCc1cc(C(=O)N=Nc2c(O)[nH]c3c(Br)cc(Br)cc23)c2ccccc2n1 | inconclusive: 7.94 µM [inhibitor, full curve, poor fit] |
| CN1/C(=C\C=[N+](C)c2ccccc2)C(C)(C)c2ccccc21 | inactive |
| CCN(CC)C(=O)c1ccc(S(=O)(=O)Cc2ccc(C)cc2)c([N+](=O)[O-])c1 | inactive |
| Cc1ccc(C2CC(c3cccc(Br)c3)n3nc(N)nc3N2)cc1 (centres undefined) | inconclusive: 7.08 µM [inhibitor, full curve, poor fit] |
| CC(=O)OC1c2ccccc2C(=O)N1Cc1ccccc1Cl (centres undefined) | inconclusive: 0.631 µM [inhibitor, partial curve, poor fit] |
| O=S(=O)(Nc1ccccc1)c1ccc(Oc2ncc(C(F)(F)F)cc2Cl)cc1 | inconclusive: 6.31 µM [inhibitor, single point] |
| Cc1ccc(-c2nc(Nc3ccc(O)cc3)c3ccccc3n2)cc1 | inconclusive: 14.1 µM [inhibitor, partial curve] |
| OCCN(Cc1ccccc1)CC1CC=CCC1 (centres undefined) | inconclusive: 6.31 µM [inhibitor, single point] |
| CCCCC1=CC2=CC(=O)C(C)(OC(=O)CC)C(=O)C2=CN1CC(C)C (centres undefined) | inactive |
